The list shows a part of the results.
B1: 38546408_38547869_4374_CDS_ENSG00000131747_ENST00000423485|human|control|control (ssRNA)
RNA: GGGAGUUCUACAGUCCGACGAUCAGACUGACUUUUUGCUGCUGUCUUCUUCACUGUCACAUUCUUUUUAGGAACUGGGUUUGUAAUUUCAGUUUCAUCUGGGAAAUGUGUAGCAGGAGGGCUUGAAGACAGUGGUACACUGCCCAACAGAGGAUUGAGCAUCA
B2: 29063523_29063643_132_5pUTR_ENSG00000198492_ENST00000541996|human|control|control (ssRNA)
RNA: GGGAGUUCUACAGUCCGACGAUCCUGGCCGACAUGGCUCUCAGAUCCUCACGGGCGGCGACGGCGGCGAACUCUCCUCAGCGCGGCGGCGGCGGCAGAUGAGCCCCGUCUGCGGGAGCAGGCGGAGGCUUUUGUCCCUGACACCAACAGAGGAUUGAGCAUCA
B3: 76554335_76554455_2282_3pUTR_ENSMUSG00000021051_ENSMUST00000021447|mouse|control|control (ssRNA)
RNA: GGGAGUUCUACAGUCCGACGAUCAGAUUGUUCACAUUUGAAAAUUGUAUCAUACUCUCUGCUAGUGAUAAAUAAGGAACUCCUGAUAAUGGAAUUUUAACAUAGCAAUUUCCCCGACAGAUCUCUGUAGACCUUUUGUUUGUUCAACAGAGGAUUGAGCAUCA
B4: chrX:98862621:98862622:+_ENSMUSG00000034160_ENSMUST00000044475|mus_hu|mus_mus_mus_hu_False|48_48 (ssRNA)
RNA: GGGAGUUCUACAGUCCGACGAUCCUGCAUCUCCUUUAGAGUGUUUCCCAUAUUAGAGUAGGCAUCAGCAAAGGUAGGACUGAUUCGUAUGGCUUCUUUAUAAUGCAUCAGAGCUUCCUGCAGUUUUCCCUGCUGCUGCAGUACCAACAGAGGAUUGAGCAUCA
B5: chr18:43664530:43664531:-_ENSG00000152234_ENST00000398752|hu_mus|FALSE|FALSE (ssRNA)
RNA: GGGAGUUCUACAGUCCGACGAUCAUUGCCCAAGAGGGACUGGUGCUGGCUGAUAACGUGAGACAAGAAAGCAUUCUCAAACUUUGUGAUCUUGCUGGGCUCCAGUUUGUCAAGAUAACCCCGUACACCCGCAUAGAUAACAGCCAACAGAGGAUUGAGCAUCA
B6: chr12:93870747:93870748:+_ENSG00000198015_ENST00000552217|hu_mus|FALSE|FALSE (ssRNA)
RNA: GGGAGUUCUACAGUCCGACGAUCGUCCACCUGGCAAUUGUAGUCAUCCGGAAGAGAAGAGUAUGUGGAUUUGUGACAAGCACUAGACAAAGCUCCGUUUUGGAUUGGAAGUAAAUGCUUCCAGAUAGUUCUGUUUGAUAUCGCCAACAGAGGAUUGAGCAUCA
B7: chr6:74354288:74354289:-_ENSG00000119899_ENST00000355773|hu_hu|FALSE|FALSE (ssRNA)
RNA: GGGAGUUCUACAGUCCGACGAUCACUCAGAUUCACACGUAAUGCAUACACAAUGAAGAAACCAAAAAAGGCCAAAAUUGCUAAGUUGUAACGAGCAGAGCAGCACACUGGAGCGGCUUCGGCCCGUGGGGCGCCCGGUAGAAGCAACAGAGGAUUGAGCAUCA
B8: 140258100_140262179_621_3pUTR_ENSG00000164134_ENST00000296543|human|control|control (ssRNA)
RNA: GGGAGUUCUACAGUCCGACGAUCGGUCCCUUAAGAUUUGAAGAUUGUCUUUAUCCCAUUUUAGUGCAUUUCUGUAACACUUAAUGGCUUCAUCAUACUUCUUGUCUGACCUCUGAAGAAGGCCAUAAACGUGCCAACACACAUCAACAGAGGAUUGAGCAUCA
B9: chr12:16048344:16048345:+_ENSG00000023734_ENST00000419869|hu_hu|hu_hu_hu_mus_True|1_1 (ssRNA)
RNA: GGGAGUUCUACAGUCCGACGAUCAGAUCGUCCAUAAGUAAUAACCAAAAUCUCUCCUUCAGGAAUAUACUCCAUGCUGCUAACAGACAUAUUAAAAUUCAGAGAUUUCACUUCUGUCAUUGUGGCAUGAUCCCAGAGUCGAACCAACAGAGGAUUGAGCAUCA
B10: 87816543_87856848_158_5pUTR_ENSMUSG00000022019_ENSMUST00000168275|mouse|control|control (ssRNA)
RNA: GGGAGUUCUACAGUCCGACGAUCAAAGGUACCAACCCGCCUGGGACAACGCGGCGCCGGACACCUCGGCCAUGGUUAGCUGUUCAGGCUCGGGGACGGCGGGGGUCUGAACUGAGGGUGGGGGACGGGCCUCCUACUGGAGACCAACAGAGGAUUGAGCAUCA
B11: chr17:57761033:57761034:+_ENSG00000141367_ENST00000269122|hu_hu|FALSE|FALSE (ssRNA)
RNA: GGGAGUUCUACAGUCCGACGAUCAUCCAACCGUGGAGACAGCACCAUCAGCAAAUCAUUUAACAACAGAGGCUUGAAUUCUAAGUAGAACUGUAUUGCUCUGUAGUAUAGUUCCACAUUGGCAACCUUGGUAAUGAUAUCUUUCAACAGAGGAUUGAGCAUCA
B12: chr2:39278355:39278356:-_ENSG00000115904_ENST00000402219|hu_hu|FALSE|FALSE (ssRNA)
RNA: GGGAGUUCUACAGUCCGACGAUCGCAGCUUCCUACUAGUGGAUGGGGACUGCCUUCAUCUGUCAUUUCUACUGUAUCUUCUAUAUGGCCCAGUAACUUUACACUAAGUUCAUGUAUAUCUACUAUGCGACUAAAUAUAUUUUCCAACAGAGGAUUGAGCAUCA
B13: 6292883_6306143_117_3pUTR_ENSMUSG00000028249_ENSMUST00000103008|mouse|control|control (ssRNA)
RNA: GGGAGUUCUACAGUCCGACGAUCUGGCGGGAUUGGCAGAAUAAGCAGUUUGAGCCUGAAUUACUUUGUCUACCUUCAAAUCUUCAAGAGAUGGAUAAAGAGACAUUUCUGCAGAUAUUUUCUGCCCCGAGGACCGCGCCGCUCCAACAGAGGAUUGAGCAUCA
B14: chr9:19447105:19447106:+_ENSMUSG00000057551_ENSMUST00000079042|mus_mus|FALSE|FALSE (ssRNA)
RNA: GGGAGUUCUACAGUCCGACGAUCUAGGUGUGAGAUGAGGCGGGGUUUGCCAACCUGAUAACCCAGUGAACUUAGAUUGCUAUAAUUCUCCAGCAUUACAUCUUUGUACAGUUUUCUCUGGGAAGAAUCUAGCAGGGGCCACUCCAACAGAGGAUUGAGCAUCA

The binders below were run against T1, UNK ZnF1-3 (human, UniProt Q9C0B0 31-174) (assay: nsRBNS (natural sequence RNA bind-n-seq); RBNS binding buffer (assumed for nsRBNS): 25 mM Tris pH 7.5, 150 mM KCl, 3 mM MgCl2, 0.01% Triton X-100, 500 ug/ml BSA, 20 U/ml SUPERase-In, 4 C; UNK is unkempt and MSI1 is Musashi-1; names of the RNAs are library labels; protein concentration not given here; high values mean tight binding).
T1 sequence: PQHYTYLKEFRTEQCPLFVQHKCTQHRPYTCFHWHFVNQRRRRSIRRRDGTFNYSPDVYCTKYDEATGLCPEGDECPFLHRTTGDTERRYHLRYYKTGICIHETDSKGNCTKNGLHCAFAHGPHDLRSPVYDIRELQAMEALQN
For B1, the binding signal was 0.387 enrichment R. Work on B2 yielded a binding signal of 0.814 enrichment R. In the case of B3, the binding signal is reported as 0.99 enrichment R. Work on B4 yielded a binding signal of 1.37 enrichment R. Work on B5 yielded a binding signal of 1.4 enrichment R. In the case of B6, the binding signal is reported as 1.2 enrichment R. B7 showed a binding signal of 1.33 enrichment R. With B8 the binding signal was 0.526 enrichment R. Work on B9 yielded a binding signal of 1.2 enrichment R. B10 gave a binding signal of 1.18 enrichment R. B11 was tested, and the binding signal was 2.13 enrichment R. B12 was tested, and the binding signal was 0.626 enrichment R. Binder B13 has a binding signal of 1.67 enrichment R. With B14 the binding signal was 0.735 enrichment R.

— PMC12136788
